Test results published in PubChem BioAssay AID1508642 (National Center for Advancing Translational Sciences (NCATS), 2021).
Among all 43,000 compounds or so, about 200 (0.47%) were called active. Another 12% or so got no clear call; they are omitted. The call rests on the fitted dose curve; in most records, active means well fitted cell-killing curve with a large enough effect; inconclusive means small, poorly fitted or top-dose-only effect, or effect the other way; inactive means flat fitted curve, though single readings scatter. Some of the results follow.

Test: Cell viability qHTS assay in S16 Pmp22-F2sN cells; further: nearly all actives have a fitted effect of over 65% in size
Details: S16 Pmp22-F2sN Schwann cells (luciferase reporters placed in the Pmp22 gene) viability, CellTiter-Glo, 24 h; series mostly up to 57.5 µM; activity change, negative = cytotoxicity: at the top concentration
In short: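 Luminescence from CellTiter-Glo, read by CCD camera after a 15 min room-temperature incubation, served as the viability signal. Reporter Schwann cells (S16 Pmp22-F2sN) had been treated with pin-transferred compounds for 24 h at 37C.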
On the % scale 0 is the no-effect control and ±100 the full control effect.

SMILES	activity change, negative = cytotoxicity
Cc1oc2c(c(C)cc3oc(=O)c(CC(=O)NCc4ccc(F)cc4)c(C)c32)c1C	inactive: 13.3%
Cc1cccc(C)c1NC(=O)CN1C(=O)c2cccc3cccc1c23	inactive: 2.23%
CCOc1ccc(NC(=O)CN2C(=O)C3(SCC(=O)N3c3ccc(F)cc3)c3ccccc32)cc1 (stereo not drawn)	inactive: -3.65%
CCC12CN3CC(CC)(CN(C1)C3c1cc(Br)ccc1OC)C2=O (stereo not drawn)	inactive: 1.76%
CCn1cc(C(=O)NCc2ccc(C)cc2)c(=O)c2cc(S(=O)(=O)N3CCc4ccccc4C3)ccc21	inactive: -0.389%
Cc1nc(-c2ccc(S(=O)(=O)N3CCN(c4ccc(F)cc4)CC3)cc2)co1	inactive: -20.6%
Cc1ccc(-n2nc3c(=O)n(CCCC(=O)NCc4ccccc4F)nc(C)c3c2C)cc1	inactive: 1.83%
Cc1csc2nc(COC(=O)CNC(=O)c3ccccc3Cl)cc(=O)n12	inactive: 13.5%
O=C(CSc1nc2ccncc2[nH]1)Nc1ccccc1C(F)(F)F	inactive: -1.17%
O=C(Nc1c(C(=O)N2CCN(c3ccccc3F)CC2)oc2ccccc12)c1ccccc1F	inactive: -0.747%
O=C(CN1CCCN(Cc2ccc(F)cc2)S1(=O)=O)NCc1ccccc1Cl	inactive: -2.26%
CN1CCN(CCCNC(=O)c2ccc3nc(Cc4ccccc4)oc3c2)CC1	inactive: 4.43%
COc1ccccc1-c1nnc(C2CCN(C(=O)c3ccc(Cl)cc3)CC2)o1	inactive: 4.51%
Cc1ccc(Cn2c(CNC(=O)c3cccc(C)c3)nc3ccccc32)cc1	inactive: 3.81%
COc1cccc2c1Oc1ncccc1N(C(=O)CCC(=O)NCc1ccc(C)cc1)C2	inactive: -6.85%
CCc1ccc(N(C)S(=O)(=O)c2ccc3[nH]cc(C(=O)NCC4CCCO4)c(=O)c3c2)cc1 (stereo not drawn)	inactive: -25.9%
N#Cc1ccccc1NC(=O)c1cnc(N2CCOCC2)c2ccccc12	inactive: 24.5%
CCC(=O)N1CCc2cc(Br)cc(S(=O)(=O)CCC(=O)NCc3ccc(F)cc3)c21	inactive: 5.68%
CC(=O)N1CCOc2cc(S(=O)(=O)N(C)Cc3ccccc3)c(Cl)cc21	inactive: 13.8%
CCCN1CCc2nc(N3CCN(c4ncccn4)CC3)ncc2C1	inactive: -2.77%
Cc1cccc(OCCCn2c(CCNC(=O)C(C)(C)C)nc3ccccc32)c1	inactive: -23.1%
Cc1ccc(C)c(CN2C(=O)c3ccccc3S(=O)(=O)c3ccc(C(=O)NCc4ccccc4)cc32)c1	inactive: -5.48%
Cc1c(C(=O)NCc2ccccc2Cl)sc2nc[nH]c(=O)c12	inactive: -2.87%
COc1ccc(CN(Cc2ccco2)c2cnc(S(C)(=O)=O)nc2C(=O)Nc2ccc(C)cc2C)cc1	inactive: -7.51%

SMILES	activity change, negative = cytotoxicity
CCOCCCNC(=O)C(=O)Nc1c2c(nn1-c1ccc(OC)cc1)CSC2	inactive: 1.36%
Cc1ccc2c(=O)c(C(=O)c3ccc(F)cc3)cn(CC(=O)NCCc3ccccc3)c2n1	inactive: -13%
CCOc1ccc(C(=O)Nc2ccc3oc(-c4cccnc4)nc3c2)cc1	inactive: 2.88%
CCN(CC)CCSc1nnc2c3cc(F)ccc3n(C)c2n1	inactive: 19.9%
Cc1cc(C)cc(NC(=O)CSc2nnc(-c3cc4occc4n3C)n2-c2ccccc2C)c1	inactive: 10.5%
O=S(=O)(NCCc1csc2nc(-c3ccccc3)nn12)c1ccc(Cl)s1	inactive: 5.05%
COc1ccc2c(CNC3CCCCCC3)c(C(=O)O)n(Cc3cccc(F)c3)c2c1	inactive: -6.24%
COc1ccc(-c2noc(CNS(=O)(=O)c3ccc(Br)cc3)n2)cc1OC	inactive: -7.66%
Cc1ccc(-c2noc(CN(C(=O)COc3cc(C)cc(C)c3C)C(C)C)n2)cc1	inactive: -16.1%
COC(=O)c1ccc(OC)c(CN2C(=O)N(c3ccc(C(C)=O)cc3)S(=O)(=O)c3ccccc32)c1	inactive: -2.68%
CCOC(=O)c1c(C)[nH]c(CCC(=O)Nc2ccc(Cl)cc2C)c1C	inactive: -10.3%
Cc1ccc(CNCc2c(C(=O)O)n(Cc3ccc(C)cc3)c3cc(C)ccc23)cc1	inactive: -5.86%
O=C(C1CCC(Cn2c(=O)c3sccc3n(Cc3ccccc3F)c2=O)CC1)N1CCCCC1 (stereo not drawn)	inactive: -7.25%
COc1ccccc1N(CC(=O)NCCSCc1cccc(Cl)c1)S(C)(=O)=O	inactive: 12.1%
Cn1c(=O)c2c(c3ccccc31)OC(=O)CC2c1cccc(F)c1 (stereo not drawn)	inactive: -3.43%
O=C(Nc1ccc(Cl)cc1)N1CCN(c2ccc3nnc(-c4ccccc4)n3n2)CC1	inactive: -7.89%
CCOc1ccc(NC(=O)c2cc3c(=O)n(Cc4cccs4)ccc3nc2C)cc1	inactive: 7.81%
Cc1cc(C)c(NC(=O)c2ncoc2-c2ccco2)c(C)c1	inactive: -7.53%
CCCCNC(=O)C1CCN(S(=O)(=O)c2ccc3c(ccn3CC)c2)CC1	inactive: 0.841%
COc1cccc(Nc2nc3cc(Cl)c(Cl)cc3nc2-n2nc(C)cc2C)c1	inactive: -2.93%
COc1ccc(NC(=O)Cn2nc(C)c3nn(-c4ccc(Cl)cc4)c(C)c3c2=O)cc1	inactive: -14.2%
CCOC(=O)Cn1c(=O)oc2cc(S(=O)(=O)N3CCN(c4ccc(C(C)=O)cc4)CC3)ccc21	inactive: 0.9%
CCOc1ccc(S(=O)(=O)c2cn(Cc3cc(C)ccc3C)c3ccc(OCC)cc3c2=O)cc1	inactive: -5.32%
CCOc1ccc(-c2nc(Cn3c(=O)cc(C)c4c(C)nn(-c5ccc(C)cc5)c43)c(C)o2)cc1	inactive: 2.29%
